Assay results: the supplement of paper PMC12067230
Single values of this set are uncertain.

Assay: amyloid nucleation score relative to library mode (yeast Sup35 reporter selection) (log enrichment difference); higher = more amyloid nucleation; sequences are the first 22 residues of the Bri2 peptide extended by up to 12 random residues
Settings: random library (experiment): 1;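 active = nucleation score significantly above 0 at FDR 0.05; inactive = not significantly above 0 or absent from output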
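Further: [psi-pin-] Saccharomyces cerevisiae expressing SupN fusions, induced by 100 µM Cu2SO4, selected 7 d at 30 °C without adenine and uracil, scored by deep sequencing of output versus input.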

Sequence	amyloid nucleation score
EASNCFAIRHFENKFAVETLICTIQDWQPFNANK	4.24
EASNCFAIRHFENKFAVETLICTISFRSGNIWAL	inactive
EASNCFAIRHFENKFAVETLICTITGWAIGPATA	inactive
EASNCFAIRHFENKFAVETLICTITR	inactive
EASNCFAIRHFENKFAVETLICTITRAIERLMAR	inactive
EASNCFAIRHFENKFAVETLICTK	inactive
EASNCFAIRHFENKFAVETLICTKLMLSTYRDFG	inactive
EASNCFAIRHFENKFAVETLICTKLRHELETIVR	0.443
EASNCFAIRHFENKFAVETLICTKRCLLCVQRSS	inactive
EASNCFAIRHFENKFAVETLICTKRHKPSLQSIV	inactive
EASNCFAIRHFENKFAVETLICTKVGTAKRGTLN	4.99
EASNCFAIRHFENKFAVETLICTL	inactive
EASNCFAIRHFENKFAVETLICTLARRWLSAYGI	inactive
EASNCFAIRHFENKFAVETLICTLCM	7.81
EASNCFAIRHFENKFAVETLICTLCTVRSEGHVH	7.15
EASNCFAIRHFENKFAVETLICTLDL	inactive
EASNCFAIRHFENKFAVETLICTLFLGAVQECWR	inactive
EASNCFAIRHFENKFAVETLICTLGLCRWVVGSS	inactive
EASNCFAIRHFENKFAVETLICTLGTWDHGAWVV	inactive
EASNCFAIRHFENKFAVETLICTLGYGSGQSCER	2.81
EASNCFAIRHFENKFAVETLICTLIVVSGLIDSL	0.498
EASNCFAIRHFENKFAVETLICTLKIYSNPSRHL	6.05
EASNCFAIRHFENKFAVETLICTLLFASGVMLRI	inactive
EASNCFAIRHFENKFAVETLICTLLTTGFSLVLW	3.47
EASNCFAIRHFENKFAVETLICTLPDIHLSLHTC	inactive
EASNCFAIRHFENKFAVETLICTLRSCLFASM	inactive
EASNCFAIRHFENKFAVETLICTLRSLSLKLNRP	inactive

Sequence	amyloid nucleation score
EASNCFAIRHFENKFAVETLICTLRVISTVLEAT	inactive
EASNCFAIRHFENKFAVETLICTLSPFNTVQYQL	inactive
EASNCFAIRHFENKFAVETLICTLSSCYTVKKPV	2.37
EASNCFAIRHFENKFAVETLICTLSTSPDDHLRL	inactive
EASNCFAIRHFENKFAVETLICTLSVPRAWSTWA	inactive
EASNCFAIRHFENKFAVETLICTLSYFWWERFCG	inactive
EASNCFAIRHFENKFAVETLICTLTPFMFYVRCD	inactive
EASNCFAIRHFENKFAVETLICTLTSYRVYIVSG	inactive
EASNCFAIRHFENKFAVETLICTLTYRFYLCRTT	inactive
EASNCFAIRHFENKFAVETLICTLWTQRAYVFRA	inactive
EASNCFAIRHFENKFAVETLICTLWWWWVQTMEW	inactive
EASNCFAIRHFENKFAVETLICTM	inactive
EASNCFAIRHFENKFAVETLICTMAKHASGSSGS	0.328
EASNCFAIRHFENKFAVETLICTMCSSTLVGKVY	inactive
EASNCFAIRHFENKFAVETLICTMG	inactive
EASNCFAIRHFENKFAVETLICTMIGARICESAW	-0.258
EASNCFAIRHFENKFAVETLICTMLGSP	3.73
EASNCFAIRHFENKFAVETLICTMLRAGRRACRR	4.33
EASNCFAIRHFENKFAVETLICTMPNRVSNRRW	inactive
EASNCFAIRHFENKFAVETLICTMQIHRPIITPS	inactive
EASNCFAIRHFENKFAVETLICTMRRDLAYGDVE	0.482
EASNCFAIRHFENKFAVETLICTMRS	inactive
EASNCFAIRHFENKFAVETLICTMRYRVWIRVHG	inactive
EASNCFAIRHFENKFAVETLICTMSLLPRRATPV	inactive
EASNCFAIRHFENKFAVETLICTMSMPLIRFFVV	0.547
EASNCFAIRHFENKFAVETLICTMTIYVNELRRL	inactive

Same assay, conditions: random library (experiment): 2

Sequence	amyloid nucleation score
EASNCFAIRHFENKFAVETLICTINLCTA	6.76
EASNCFAIRHFENKFAVETLICTINSLTVRMTCL	inactive
EASNCFAIRHFENKFAVETLICTIQNIYRYFVLK	inactive
EASNCFAIRHFENKFAVETLICTIRLWRFAMFLS	inactive
EASNCFAIRHFENKFAVETLICTISSIYSDEFKG	0.41
EASNCFAIRHFENKFAVETLICTIYLGLRSLFTV	inactive
